In all, about 33,000 sequences were measured (“E-score (-0.5 to 0.5)”: median about -0.04, highest 2% from about 0.36 on). The list shows a part of the results.
target: T1, Hmlalpha2 (UniProt P0CY09); assay: PBM E-score (8-mer binding enrichment) (E-score (-0.5 to 0.5)); higher = stronger / more preferred TF binding; most listed sequences are background and not binding sites; settings: protein concentration: 200 nM; construct: GST-full length
T1 sequence: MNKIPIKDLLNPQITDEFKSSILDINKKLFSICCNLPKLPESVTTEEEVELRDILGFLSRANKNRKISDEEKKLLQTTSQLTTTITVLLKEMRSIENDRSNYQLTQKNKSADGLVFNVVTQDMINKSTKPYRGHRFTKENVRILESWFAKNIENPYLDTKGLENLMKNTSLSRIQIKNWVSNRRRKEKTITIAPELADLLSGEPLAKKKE
Outline: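 The E-score, a modified Wilcoxon-Mann-Whitney statistic, was computed by the Universal PBM Analysis Suite for every ungapped eight-base word pooled with its reverse complement. Scans behind it were normalised with masliner after bound GST-tagged yeast transcription factors were detected with fluorescent anti-GST. The proteins, at about 100-200 nM, had been applied to universal all-10-mer Agilent arrays made double-stranded by primer extension.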

Sequence | PBM E-score
GATATAAC | 0.26
CGATTGGC | -0.143
ATCACCCG | -0.269
GTTCTGGA | 0.103
AATGGATG | 0.0152
ACAGGTAA | 0.114
ACACAACA | 0.381
AATGTTTC | -0.0508
TCAAGGAA | -0.0123
AGTGGTAT | -0.0786
AATCGCCA | -0.0689
TCCCGAAA | -0.104
ACAAGTAT | 0.202
AAGAGTGC | -0.0701
AATTTGGT | 0.0967
AGACTTAC | 0.12
ACCACCCA | -0.145
ATGCTCCG | -0.297
GACGCGGC | 0.128
CAAGCGGC | -0.0746
CTCTTTAC | 0.233
ACTTGACA | 0.239
CGACGTTA | 0.231
ACTACGGC | -0.197
TCACTTAA | 0.117

Sequence | PBM E-score
GTAATACA | 0.397
ACCATTAG | -0.0407
AAGCCCCT | -0.253
ATATTGAC | -0.0129
GTTGTCAA | 0.263
GCTATTAA | 0.217
AGAAAACC | -0.288
GGAATACC | -0.0768
GCACATGA | 0.0937
CCCGGTCA | -0.313
ATTCTGTC | -0.137
ACATAGCT | 0.219
GTCTCTGA | -0.0549
AATGTCAC | 0.173
CGCTTTAA | 0.0665
GAGAGACC | -0.262
TACATCTA | 0.263
ACGTCCGC | 0.0186
ACTCGAAA | -0.0126
ACAACCGT | 0.233
ACATGGCC | 0.417
ACAACCTA | 0.171
TTGACCAA | -0.0386
ATAAACTA | 0.244
CGTAACAA | 0.228

Sequence | PBM E-score
CGAAGGAG | -0.176
ACGAGTCG | -0.059
CTGCTTAC | 0.0925
ACAACAGC | 0.226
AGCCCACG | -0.147
ATTCCGGG | -0.0924
AGGTAATC | 0.183
CGCGTATC | 0.219
AGTTCTGA | 0.0255
AAAGGGCA | -0.206
TGGGAACA | -0.00887
CAACTTCA | 0.047
ATAAGACA | 0.147
AAGGGAGT | -0.219
CATGAAGA | 0.137
GTCCTATA | -0.0572
AGACGAAG | 0.0678
AACGTGGA | 0.198
AAATGCAA | 0.0646
CGACGATA | 0.00205
ACGCAAAG | -0.0365
AAAGTCCT | -0.214
ACGACTTG | 0.0466
GTGTCTAA | 0.291
GAGTCTCC | -0.271

Sequence | PBM E-score
CCCTCGGC | -0.204
CAAATCTA | 0.146
GCAAACAC | 0.157
ATTCCTGC | -0.121
CGACAAAG | 0.126
AAGTTTTC | 0.0613
CGCGAACC | 0.00161
CTGTTCTC | -0.0912
GCACTACC | -0.121
ACAGTCGA | -0.121
AAGCAGCG | 0.13
GCAATCCC | -0.164
GAATGAAC | 0.149
AGGTAACA | 0.291
AAAAGAAA | 0.0596
GAACCCGA | -0.145
CAGAACGC | -0.0459
GCACGCGA | 0.029
CTAAGTCC | -0.395
CTCACTCC | -0.201
CTGAGTTC | 0.0144
GGGGTGAC | -0.129
TACCCAAA | 0.0217
CCGCAAAC | -0.0215
ACACTATG | 0.135

Sequence | PBM E-score
GGGCAACC | -0.288
ACTTGTAT | 0.254
AGCTCAAG | -0.218
CTATAGGC | -0.171
CTTGAAAG | -0.0812
CCACCGAG | -0.341
GCGCGAGC | -0.39
CGTTCCCA | -0.181
CAACAATG | 0.301
CCGATTGC | 0.0705
CATATTTC | 0.0458
GTGGACAC | 0.0372
CCCCATAG | -0.203
AGCATCAG | -0.136
ATAGTCCA | -0.077
ACGAGGTA | 0.0171
AAATATTA | 0.317
CCGTCGAA | -0.155
ATCAATCC | -0.169
CGTAACTC | 0.0663
AGGTTCAT | -0.158
CATACCAC | -0.03
CCGCGTGC | -0.117
GATTAAAA | 0.172
CACATGGC | 0.0319

Sequence | PBM E-score
AGAAGACC | -0.261
CTGTACTA | 0.113
ACAAATGG | 0.183
CTACACGC | 0.428
AAGTTACA | 0.297
AGTCGCGA | -0.0755
TAGTGTGA | 0.0401
AGCTATCC | -0.278
CCCGAGGC | -0.283
ACGGGTTA | -0.147
CCAACTCG | 0.00221
ATGCCAAG | -0.124
CCTGCCGA | -0.235
GTACACTA | 0.135
TCCATAGA | -0.143
CTATGGCC | -0.191
CCCGGGAC | -0.306
CTTGTGTC | 0.0968
TCACAAAA | 0.141
AGCACGGA | 0.051
CCCTGGAA | -0.378
ACGTATCC | -0.0857
TGGATAAA | -0.0263
ACACACCC | 0.263
CGTTGTCC | 0.136

Sequence | PBM E-score
ACCTCGAG | -0.00365
CACCGCGG | -0.229
ACCTCACA | 0.0475
CATTATTA | 0.17
CCTTAAAC | -0.15
CGGACCGA | -0.0774
TGGGGACA | -0.151
AGACATTA | 0.198
GAGTCTCA | -0.328
ATTGTGAA | 0.156
CAAAGGCG | 0.0132
GCAAGGTA | 0.0236
CAGCCCCA | -0.2
GGATACAA | 0.251
CCTATGAA | -0.065
ATAATCTG | -0.0832
AGGATCAA | -0.0375
CAAGATCA | -0.0183
ACCCCACC | -0.209
AAATCCCT | -0.188
CGACTCAG | -0.224
ACTTACTA | 0.072
CTTTCTAA | 0.138
ATACCCCA | -0.153
AATCTGGA | 0.0142

Sequence | PBM E-score
AGCGGCTC | -0.117
GGCCATAA | -0.247
AATACATC | 0.368
CCGGATAC | -0.186
CGAGAGAG | -0.108
CGAACGAG | -0.033
CCATTAGG | -0.244
GTCGTTGA | 0.118
AACATTCA | 0.0991
GGCGGCCC | -0.293
AATACGAC | 0.151
ACTTTGGG | -0.24
AAGGTACG | 0.0982
GTGAATGA | -0.00596
CAGACTGC | -0.127
ACTCGTAG | 0.0597
AGACCGCG | 0.0522
ACAATTAC | 0.376
TCTAAGAA | 0.128
AACCCCTA | -0.243
GCCAGCGC | -0.251
ATACTTGA | 0.23
GCCGGGCA | -0.334
AGAGATAG | -0.0703
ACTGGTTG | -0.0324

Sequence | PBM E-score
ATCAACGG | 0.00775
CCTATCAG | -0.143
CAGATACC | -0.251
AGCCGATC | -0.04
GAAAATGC | -0.0305
AGTCAGAC | -0.161
AGAGCCTG | -0.111
GCAATGCA | 0.0279
CCACCTGG | -0.258
ATTTGTGC | 0.0208
ATGTTTCG | 0.211
CGTGGTAA | 0.234
TAAGGAGA | -0.0786
ACCGCTAT | -0.124
ATCCACCG | -0.0829
CCCTTGAA | -0.138
CCTCTTTC | -0.349
GTCCACCA | -0.147
GCGTGAGC | -0.0629
CAGTTTGG | -0.232
GGTTCTAA | 0.0008
CATTACAC | 0.474
CGATATGC | -0.117
CTCTAACA | 0.207
AAGTGGCG | -0.0817

Sequence | PBM E-score
CTGAAGGA | -0.321
CATTCTGG | -0.0567
AGTAGTCC | -0.0822
AATTCTTC | -0.00112
CTCTAGTA | 0.0413
GCTCGTGA | -0.249
ACCACGAT | 0.163
ACCCACCA | -0.209
CATCCGGA | -0.113
ATGTCGAA | 0.347
GGGGCGGA | -0.415
TACACTCA | 0.285
AATGAATG | 0.0645
CTAAAACA | 0.306
AGACTCAA | -0.0314
CTTAGAAC | 0.139
CATTAGAG | -0.127
CCTCGGTC | -0.292
TGTTTTAA | 0.382
CGAATGGA | -0.0134
AATTAAAA | 0.216
CATACACA | 0.336
ACGTTTAC | 0.318
ATTCCCGA | -0.104
GGGCACAC | -0.25

Sequence | PBM E-score
CACAGGCC | 0.0776
CATTTCGA | 0.0151
CTGGAATC | -0.0553
GAGCGGGA | -0.161
TCATTGAA | 0.00565
CATCTGGC | -0.125
AAATTATA | 0.167
CCGGAAGG | -0.237
AAGCCAAA | 0.0236
ACGTTGAG | 0.151
CTTTAACC | -0.0213
AACTATGC | 0.121
ATAAACTG | 0.0806
CATAGCCC | -0.0214
TAGAATAA | 0.237
CTTGGTGA | -0.214
AATTAAGC | 0.0787
CCTGAGTA | 0.17
CTCAGTAA | -0.0267
CTGGCCGC | -0.162
GAATAAGA | -0.145
AGCGATGG | -0.278
AAATGCTG | 0.229
GAGACTAC | -0.0959
AAGACTGA | -0.0912

Sequence | PBM E-score
CCGAAAAC | 0.0225
GTCGCTGA | -0.154
GACCACAA | -0.253
AATGGTAG | 0.0738
CCAATTAC | 0.299
GTACTAAC | 0.263
CATCAAGG | -0.102
ACATACAG | 0.336
CTCCGTGA | -0.182
ACCTACAG | -0.0898
CTAACTGC | -0.166
CGCAGAGC | -0.128
ATGCCCCC | -0.26
AACCCCCC | -0.355
GCATCTTA | -0.0174
ATCCCGCA | 0.103
AACCGTCG | 0.0585
CCTATGCG | -0.0726
CATCGTGC | 0.0775
AAAAGCGA | 0.0689
GTCCTTGA | 0.0679
GCTTAGGA | -0.268
ATTATAAG | 0.0165
GAGGGCAC | -0.357
CGGAGCCA | -0.0994

Sequence | PBM E-score
CCATTACA | 0.435
ACCCTTTA | 0.12
CAATATCG | -0.129
AGCCCCCC | -0.344
ACGGCAAA | -0.00563
ATTGGACC | -0.235
GCTGGCAC | -0.0272
CAGCACCC | -0.206
ATTTGTCC | 0.0162
ATCAAGAG | -0.0252
CTCACCAA | -0.15
ACGTGCGA | 0.0576
ATGGAATC | 0.114
TAGCTATA | -0.0261
CTCATGGC | -0.127
GCCCTAAC | 0.0268
AAGGACTG | -0.201
GTTCCCGA | -0.0578
CTAATCAC | 0.0641
CTTTCTCC | -0.234
CTGATGCC | -0.132
ACTACATA | 0.378
AACCGCAA | -0.00406
GTCTCTAA | -0.0508
CCGTCTAG | -0.148

Sequence | PBM E-score
ACACAGTC | 0.215
CCAAAGCC | -0.274
CGGCCACA | -0.177
GCATGCTA | 0.00271
ACGACCCA | -0.0906
ATGTATAC | 0.435
CATTGATC | 0.0793
GAACTTTA | 0.0729
GACGAGCC | -0.0177
CGGGCCTA | -0.294
CAAAAGGC | -0.0677
CATCCGGG | -0.166
TTAAACAA | 0.274
CATTTTCC | -0.0141
GGCACGCC | -0.35
GTATACGA | 0.15
AATGAACA | 0.224
AACCTCAT | 0.118
GCAACAGA | -0.00297

From the supplement of paper PMC3334620
